Experimental data taken from ChEMBL document CHEMBL4888484, “Replenishing the malaria drug discovery pipeline: Screening and hit evaluation of the MMV Hit Generation Library 1 (HGL1) against asexual blood stage Plasmodium falciparum ,using a nano luciferase reporter read-out” (2022).
About 540 (0.36%) of roughly 150,000 compounds showed an effect of 50% or more. The list shows a part of the results.

Test system: Plasmodium falciparum
Experiment: Primary screen in NF54 nanoGlo assay, in single point, at 2uM, 72h; a lower Z score goes with more inhibition
Format: functional, Erythrocyte
Conditions: timepoint 72 hour

Structure (SMILES) | % Inhibition | Z score
O=C1CN(C(=O)c2ccncc2Cl)C2CCCCC2N1 (stereo unspecified) | -4% | 0.57
O=C(CN1CCOC1=O)NCC[C@H]1CCCOC1 | -8% | 1.33
O=C(NCc1cncc(-c2ccco2)c1)c1cccc(Oc2ccc(F)cc2)c1 | -10% | 1.89
Cc1ccc(S(=O)(=O)Nc2ccc(N3CCNCC3)c(C(=O)N3CCC(C)CC3)c2)c(C)c1 | -1% | 0.11
Cc1cc(C)c2[nH]c(C(=O)NCCCN3CCNC(=O)C3)c(C)c2c1 | -2% | 0.27
O=C(CCn1cnc2ccccc2c1=O)N(Cc1c(F)cccc1F)C1CC1 | 18% | -2.6
CCN(CC)C(=O)Nc1ccc(CN2OCC(C)(C)C2=O)c(Cl)c1 | -31% | 3.68
CNC(=O)c1sc(-c2ccc(N3CCCC3)nc2)nc1C | -10% | 0.95
O=C1CN(C2CCC2)C(=O)N1c1cccc(Cl)c1 | -4% | 0.42
O=C(NCc1ccccc1)C1(F)CCN(Cc2cccc3[nH]ccc23)CC1 | -12% | 1.53
O=C(NC1CCCCC1)[C@H]1CC(=O)N(c2cccc(-c3noc(-c4cccs4)n3)c2)C1 | -8% | 1.4
COc1ccc(NC(=O)CN2c3ccccc3S(=O)(=O)c3ccccc32)c(OC)c1 | -9% | 0.94
O=C(Cn1ccnc1)NC[C@H](O)c1c(Cl)cccc1Cl | -4% | 0.54
Cc1ccn(CC(=O)N[C@H]2CC(C)(C)Oc3ccc(F)cc32)n1 | -3% | 0.57
CCCCN(C)C(=O)Nc1ccc(OC)nc1 | -15% | 1.99
COc1ccc(C)c2sc(N(CCN3CCOCC3)C(=O)c3ccc(Cl)s3)nc12 | -13% | 1.71
c1cc(-c2ccc(CN3CCNCC3)cc2)n2nccc2c1 | 2% | -0.38
CC(=O)Nc1cc2ncnn2c(NC(C)=O)n1 | -8% | 1.1
Cc1nc(C)c(C(=O)N[C@H]2CC[C@H](Oc3ccccn3)CC2)s1 | -14% | 1.6
CC(C)(C)C(=O)Nc1ccccc1NC(=O)C(C)(C)C | 5% | -0.66
CC(C)(C)Nc1nc2nonc2nc1NC1CCCCC1 | 38% | -4.92
COc1ccc(NC(=O)c2cn3ccnc(-c4ccccc4)c3n2)cc1OC | 29% | -3.24

Structure (SMILES) | % Inhibition | Z score
COC(C(=O)NC1(c2noc(C3CCCO3)n2)CCCCCC1)C1CC1 (stereo unspecified) | -9% | 1.59
Cc1c(C#N)c(NC(=O)CN2CCN(Cc3ccc4c(c3)CCO4)CC2)n(Cc2ccco2)c1C | 15% | -1.71
CC1CCN(c2ncc3c(n2)CCN(Cc2ccc(Cl)cc2)C3)CC1 | -17% | 3.16
O=C(c1nccc2ccccc12)N1CCN(Cc2ccncc2)CC1 | -4% | 0.57
CCCCn1nnnc1Cn1c(=O)n(C)c2ccccc21 | -2% | 0.32
Cc1ccc2cc(C(=O)[C@@H](C#N)C(=O)c3nccn3C)c(C)nc2c1 | -2% | 0.34
Cc1nc(N(C)C2CC[S+]([O-])CC2)c2cnn(C(C)(C)C)c2n1 (stereo unspecified) | 4% | -0.46
O=C(CS(=O)(=O)c1ccccc1)Nc1ccc(S(=O)(=O)Nc2nccs2)cc1 | -6% | 1.15
NC(=O)[C@H]1CC=CC[C@@H]1Nc1nnc(-c2ccccc2)s1 | -15% | 2.04
CC(C)C[C@H](NC(=O)c1ccccc1F)C(=O)N(C)C | 1% | -0.08
C#CCCC1(CCC(=O)N2CC3(CCCC3)[C@H]2c2ccco2)N=N1 | -14% | 1.8
Clc1ccc2[nH]c([C@@H]3CCCCN3)nc2c1 | -2% | 0.25
COC(=O)C1(NCc2csc(C)n2)CCC(C)CC1 (stereo unspecified) | -3% | 0.53
C[C@H]1CCCCN1S(=O)(=O)c1ccc(NC(=O)c2sc3ccccc3c2Cl)cc1 | -17% | 3.36
Cc1ccc(C2=NO[C@@H](CNC(=O)NCCn3ccnc3)C2)cc1C | -4% | 0.61
COc1ccccc1NC(=O)NC(C)(C)c1ncc(OC)c(=O)[nH]1 | 4% | -0.85
CC(C)CCN1CC2(CCN([C@@H](C)CCN(C)C)CC2)OC1=O | -12% | 1.62
COC1CCCCCC1NC(=O)NC(C)(CO)C1CC1 (stereo unspecified) | 0% | -0.03
CCOC(=O)N1C(C(=O)NC2CC2)CCC1c1ccc(C)o1 (stereo unspecified) | -5% | 0.62
CCC[C@H](NS(=O)(=O)c1cc(-c2cc(C)no2)ccc1C)c1cccs1 | 0% | -0.03
Cc1cc(C(=O)Nc2nc(CC3CC3)ns2)ns1 | -9% | 1.64
